About 200 (0.44%) of roughly 45,000 compounds were called active. Roughly 7% stayed inconclusive and do not appear here. The call rests on the fitted dose curve; in most records, active means well fitted activation curve with a large enough effect; inconclusive means small, poorly fitted or top-dose-only effect; inactive means no such curve, though single readings can be large or run the other way. This is one part of the list.
Test: qHTS of TDP-43 Inhibitors: NCGC Sytravon Library Screen; further: 0% is about no effect; nearly all actives have a fitted effect of over 55% in size
Conditions: yeast TDP-43 toxicity rescue, BacTiter-Glo growth, 24 h; series mostly up to 46.1 µM; growth rescue (activation): at the top concentration
In short: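 TDP-43-expressing yeast, pregrown in raffinose, seeded at OD600 0.02 in galactose medium with compound for 24 hr at 30 deg C. Growth read by BacTiter-Glo luminescence, so rescue of toxicity appears as activation.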

**Q.** With `C/C(=N/NC(=O)CSc1nc2ccccc2n1C)c1ccncc1` as the compound, how does the “growth rescue (activation)” value read?
**A.** inactive: -0.636%

**Q.** For `Cc1nc2ccc(NC(=O)Cc3ccc(Br)cc3)cc2s1`, which “growth rescue (activation)” value is on record?
**A.** inactive: -2.41%

**Q.** For `COc1ccc(C(C)(NC(C)=O)c2nc(-c3ccc(F)cc3OC)cs2)cc1` (stereo not given), which “growth rescue (activation)” value is on record?
**A.** inactive: 19.1%

**Q.** Which “growth rescue (activation)” value does the source give for `CC(CN1CCN(C)CC1)OC(=O)c1ccc(Cl)cc1` (stereo not given) here?
**A.** inactive: -11.8%

**Q.** Which “growth rescue (activation)” value does the source give for `COc1ccc(N2C(=O)C(CN3CCN(C)CC3)C2c2ccccc2)cc1` (stereo not given) here?
**A.** inactive: -2.98%

**Q.** With `O=C(NN1C(=O)/C(=C/c2ccc(O)c(O)c2)SC1=S)c1ccccc1` as the compound, how does the “growth rescue (activation)” value read?
**A.** inactive: -15.8%

**Q.** For `CNC(=O)CS(=O)(=O)CC(=O)Nc1cc(OC(C)C)c(Cl)cc1Cl`, which “growth rescue (activation)” value is on record?
**A.** inactive: -10.5%

**Q.** With `C/C(=N\NC(=O)C(N)=O)c1ccc(O)cc1O` as the compound, how does the “growth rescue (activation)” value read?
**A.** inactive: -2.59%

**Q.** Which “growth rescue (activation)” value does the source give for `CN(Cc1ccon1)Cc1cn[nH]c1-c1ccc(-c2ccccc2)cc1` here?
**A.** inactive: 7.54%

**Q.** For `CCNC(=O)N1CCCC(C(=O)c2ccc3cc(OC)ccc3c2)C1` (stereo not given), which “growth rescue (activation)” value is on record?
**A.** inactive: 4.25%

**Q.** For `O=C(NCCCc1nc2ccccc2n1Cc1cccc(Cl)c1)C1CCCCC1`, which “growth rescue (activation)” value is on record?
**A.** inactive: 5.65%

**Q.** For `COc1ccc(CN(CC(=O)NCc2ccccc2)C(=O)CCC(=O)Nc2nccs2)cc1`, which “growth rescue (activation)” value is on record?
**A.** inactive: -3.05%

**Q.** Which “growth rescue (activation)” value does the source give for `O=C(COC(=O)c1ccccc1-c1nc2ccccc2s1)NC1CCS(=O)(=O)C1` (stereo not given) here?
**A.** inactive: -0.982%

**Q.** Which “growth rescue (activation)” value does the source give for `O=c1oc(-c2ccccc2[N+](=O)[O-])nc2ccccc12` here?
**A.** inactive: 14.1%

**Q.** For `COc1cc(/C=C(\C#N)C(=O)NC(C)C)ccc1OCc1ccc(C(=O)O)cc1`, which “growth rescue (activation)” value is on record?
**A.** inactive: 3.57%

**Q.** With `C=CCOc1ccc(/C=N/NC(=O)C(=O)N2CCCCCC2)cc1OC` as the compound, how does the “growth rescue (activation)” value read?
**A.** inactive: 4.18%

**Q.** For `CC(C)C1Oc2cc3oc(=O)ccc3cc2C1=O` (stereo not given), which “growth rescue (activation)” value is on record?
**A.** inactive: 9.93%

**Q.** For `COc1ccc(Br)c(C(=O)N2CCCC2(C)C(=O)NCC(C)C)c1` (stereo not given), which “growth rescue (activation)” value is on record?
**A.** inactive: -2.19%

**Q.** For `CCCN1CCc2c(sc3nc(SC)n(-c4ccccc4)c(=O)c23)C1`, which “growth rescue (activation)” value is on record?
**A.** inactive: -6.67%

**Q.** With `CCCCN(CC)CCNC(=O)c1cc2c(=O)[nH]c3ccccc3c2s1` as the compound, how does the “growth rescue (activation)” value read?
**A.** inactive: -8.41%

**Q.** For `CC(C)OC(=O)CC(=O)CSc1nc(-c2ccc(F)cc2)cc(-c2ccccc2)c1C#N`, which “growth rescue (activation)” value is on record?
**A.** inactive: 10.1%

**Q.** With `CC(NC(=O)C1=CC=CN2CCS(=O)(=O)N=C12)c1ccc(Cl)c(Cl)c1` (stereo not given) as the compound, how does the “growth rescue (activation)” value read?
**A.** inactive: -1.93%

**Q.** For `Cn1cnnc1SCc1ccc(C(=O)N/N=C(/CCC(=O)O)c2ccc(C(C)(C)C)cc2)cc1`, which “growth rescue (activation)” value is on record?
**A.** inactive: 6.17%

**Q.** Which “growth rescue (activation)” value does the source give for `CCCCC(CC(C)O)c1n[nH]c(=S)n1-c1ccccc1` (stereo not given) here?
**A.** inactive: -19.3%

**Q.** For `CCOC(=O)c1ccc(-c2ccc(/C=N/NC(=O)CN(c3ccccc3Cl)S(C)(=O)=O)o2)cc1`, which “growth rescue (activation)” value is on record?
**A.** inactive: -5.81%

**Q.** With `CCCOc1ccc(CNC(=O)C2CCN(C(=O)c3sccc3-n3cccc3)CC2)cc1` as the compound, how does the “growth rescue (activation)” value read?
**A.** inactive: 15.3%

**Q.** For `N#CCn1c(CN2CCCC2)nc2ccccc2c1=O`, which “growth rescue (activation)” value is on record?
**A.** inactive: 9.54%

**Q.** Which “growth rescue (activation)” value does the source give for `CC(C(=O)N(C)C1CCCCC1)N1CCC(C(N)=O)CC1` (stereo not given) here?
**A.** inactive: 11.6%

**Q.** Which “growth rescue (activation)” value does the source give for `O=S(=O)(NCC1CCCO1)c1ccc(NS(=O)(=O)c2ccc(F)cc2)cc1` (stereo not given) here?
**A.** inactive: 8.35%

**Q.** With `CC(=O)c1ccc2c(c1)OCCOCCOCCOCCOCCO2` as the compound, how does the “growth rescue (activation)” value read?
**A.** inactive: -6.75%

**Q.** For `CCNC(=O)C1CC(=O)N(CCCc2ccccc2)C(=Nc2ccccc2)S1` (stereo not given), which “growth rescue (activation)” value is on record?
**A.** inactive: 4.39%

**Q.** Which “growth rescue (activation)” value does the source give for `CCN(CC)c1ncnc2c1ncn2[C@H]1CN(C2CCCC2)C[C@@H](CO)O1` here?
**A.** inactive: 1.1%

**Q.** With `C[C@H](NC(N)=O)C(=O)Nc1ccc(OCc2ccccc2)cc1` as the compound, how does the “growth rescue (activation)” value read?
**A.** inactive: 22.1%

**Q.** Which “growth rescue (activation)” value does the source give for `CC1CN(S(=O)(=O)c2ccc(C(=O)Nc3nc(-c4cc5ccccc5o4)cs3)cc2)CC(C)O1` (stereo not given) here?
**A.** inactive: 7.48%

**Q.** For `Nc1cccc(C(=O)Nc2ccc3nc(-c4cccnc4)[nH]c3c2)c1`, which “growth rescue (activation)” value is on record?
**A.** inactive: 4.4%

**Q.** With `O=C(COC(=O)Cc1ccc(Cl)cc1)Nc1ccccc1-c1ccccc1` as the compound, how does the “growth rescue (activation)” value read?
**A.** inactive: 23.3%

**Q.** With `NC(=O)CCCSc1nc2ccccc2[nH]1` as the compound, how does the “growth rescue (activation)” value read?
**A.** inactive: -1.23%

**Q.** With `O=C(COc1cccnc1[N+](=O)[O-])N1CCc2ccccc21` as the compound, how does the “growth rescue (activation)” value read?
**A.** inactive: 3.22%

**Q.** For `NC(=O)NOCc1ccccc1F`, which “growth rescue (activation)” value is on record?
**A.** inactive: -6.37%

**Q.** For `O=C(Nc1ccc(Cl)cc1Cl)NC1CCCC1`, which “growth rescue (activation)” value is on record?
**A.** inactive: -0.611%

**Q.** For `O=C(CSc1nc(-c2ccc(F)cc2)cc(C(F)(F)F)n1)NCc1cccs1`, which “growth rescue (activation)” value is on record?
**A.** inactive: 9.41%

**Q.** For `CN(C)CCn1c(=O)n(C2CCCCC2)c(=O)c2c3c(sc21)CCCCC3`, which “growth rescue (activation)” value is on record?
**A.** inactive: -28.8%

**Q.** Which “growth rescue (activation)” value does the source give for `CCN(CC)S(=O)(=O)c1cc([N+](=O)[O-])ccc1N=Nc1c(O)n(C)c2ccccc12` here?
**A.** inactive: 18.2%

**Q.** Which “growth rescue (activation)” value does the source give for `COc1cc(NC(=O)CCS(=O)(=O)c2ccc3c(c2)n(C)c(=O)c(=O)n3C)cc(OC)c1` here?
**A.** inactive: -0.206%

**Q.** Which “growth rescue (activation)” value does the source give for `Cc1ccc2nc(CSc3nnc(Nc4ccccc4C)s3)cc(=O)n2c1` here?
**A.** inactive: 13.9%

**Q.** For `O=C(NCc1ccc(F)cc1)c1cc(C2CCCCN2C(=O)c2cccs2)on1` (stereo not given), which “growth rescue (activation)” value is on record?
**A.** inactive: 22.8%

**Q.** With `Nc1nc(-c2cccs2)c(CC(=O)O)s1` as the compound, how does the “growth rescue (activation)” value read?
**A.** inactive: 9.33%

**Q.** With `O=C(OC(C(=O)NC1CCCCC1)c1ccccc1F)c1ccco1` (stereo not given) as the compound, how does the “growth rescue (activation)” value read?
**A.** inactive: -2.2%

**Q.** Which “growth rescue (activation)” value does the source give for `COc1ccc(NS(=O)(=O)c2cc(NS(=O)(=O)c3cccs3)ccc2C)cc1` here?
**A.** inactive: 1.61%

**Q.** For `CCOC(=O)C1C(c2ccc(O)c(O)c2)NC(=S)NC1(O)C(F)(F)F` (stereo not given), which “growth rescue (activation)” value is on record?
**A.** inactive: 7.32%

**Q.** For `CCOC(=O)C1(C)CCCN1C(=O)c1ccc(C)cc1` (stereo not given), which “growth rescue (activation)” value is on record?
**A.** inactive: 3.81%

**Q.** With `Cc1ccsc1-c1nc(CN(C)C(C2CC2)C2CC2)c(C)o1` as the compound, how does the “growth rescue (activation)” value read?
**A.** inactive: 12.2%

**Q.** Which “growth rescue (activation)” value does the source give for `COc1ccc(-c2cc(NC=O)c3ncc(-c4ccc(C(C)=O)cc4)n3c2)cn1` here?
**A.** inactive: 18%

**Q.** With `COc1ccc(-c2[nH]ncc2CN2CCC(N3CCSCC3)CC2)cc1F` as the compound, how does the “growth rescue (activation)” value read?
**A.** inactive: 5.2%

**Q.** With `CCC(C)NC(=O)c1ccccc1NC(=O)COc1ccc(OC)cc1` (stereo not given) as the compound, how does the “growth rescue (activation)” value read?
**A.** inactive: 24.3%

**Q.** For `CCCCNC(=O)/C=C1\Sc2ccccc2NC1=O`, which “growth rescue (activation)” value is on record?
**A.** inactive: 9.03%

**Q.** Which “growth rescue (activation)” value does the source give for `C=CCNc1nc(NCCOC)c2sc(-c3ccccc3)cc2n1` here?
**A.** inactive: 9.72%

**Q.** With `Cc1ccc(-c2nc3ccccn3c2C=O)cc1` as the compound, how does the “growth rescue (activation)” value read?
**A.** inactive: 22.3%

**Q.** For `Cc1no[n+]([O-])c1COc1ccc(/C=N/n2nnnc2N)cc1`, which “growth rescue (activation)” value is on record?
**A.** inactive: 3.27%

**Q.** For `CCNc1nc2c(c(=O)n(C)c(=O)n2C)n1CCCc1ccccc1`, which “growth rescue (activation)” value is on record?
**A.** inactive: 1.54%

**Q.** With `O=C(c1nnc(-c2ccccc2)o1)C1CC1` as the compound, how does the “growth rescue (activation)” value read?
**A.** inactive: 14.8%

**Q.** For `CN(CC(=O)N1CCN(Cc2ccccc2)CC1)C(=O)Cc1ccc(Cl)c(Cl)c1`, which “growth rescue (activation)” value is on record?
**A.** inactive: 2.73%

**Q.** Which “growth rescue (activation)” value does the source give for `CC(=O)c1ccccc1NC(=O)CSc1n[nH]c(=O)n1C1CC1` here?
**A.** inactive: 1.31%

**Q.** For `CN(/N=C/c1ccco1)C1=NS(=O)(=O)c2ccccc21`, which “growth rescue (activation)” value is on record?
**A.** inactive: -2.08%

**Q.** Which “growth rescue (activation)” value does the source give for `COCC1CCCCN1Cc1cn[nH]c1-c1ccc(OC)cc1OC` (stereo not given) here?
**A.** inactive: 3.84%

**Q.** Which “growth rescue (activation)” value does the source give for `Cc1c(C(=O)N2CCC2)oc2c(F)cccc12` here?
**A.** inactive: -2.27%

**Q.** For `Cc1cccc(NC(=O)c2ccc(OCc3c(C)noc3C)cc2)c1C`, which “growth rescue (activation)” value is on record?
**A.** inactive: 5.63%

**Q.** Which “growth rescue (activation)” value does the source give for `COc1ccc2nc(SCC(=O)NCc3ccc(F)cc3)[nH]c2c1` here?
**A.** inactive: -1.89%

**Q.** With `Cc1ccc2nc(C)c(C(=O)O)cc2c1` as the compound, how does the “growth rescue (activation)” value read?
**A.** inactive: 7.97%

**Q.** With `Cc1ccc(C)c(NS(=O)(=O)c2ccc(OCC(=O)NCc3ccccn3)cc2)c1` as the compound, how does the “growth rescue (activation)” value read?
**A.** inactive: 2.52%

— PubChem BioAssay AID1347073 (National Center for Advancing Translational Sciences (NCATS), 2019)
